To fix the notation:
B1: PSTPIP2_Y323_N322S (peptide)
chain: PDDPSYSLVDD
B2: PSTPIP1_Y53_Q48H (peptide)
chain: HAEERYGKELV
B3: PTEN_Y177 (peptide)
chain: RRYVYYYSYLL
B4: PTEN_Y174_R173H_YF (peptide)
chain: PSQRHYVFFFS
B5: PTCHD1_Y84_R82H (peptide)
chain: SKHHLYSDLQT
B6: PTEN_Y176_R173H (peptide)
chain: QRHYVYYYSYL
B7: PTEN_Y174_R173P (peptide)
chain: PSQRPYVYYYS
B8: PTEN_Y174_V175L_YF (peptide)
chain: PSQRRYLFFFS
B9: PTEN_Y155_T160I (peptide)
chain: EALDFYGEVRI
B10: PTCHD1_Y84 (peptide)
chain: SKHRLYSDLQT
B11: PTEN_Y155 (peptide)
chain: EALDFYGEVRT
B12: PTEN_Y174_Y174N (peptide)
chain: PSQRRNVYYYS
B13: PSG4_Y271_YF (peptide)
chain: SKNFTYIWWLN
B14: PTEN_Y138_C136Y (peptide)
chain: VMIYAYLLHRG
B15: PTEN_Y174_R173C_YF (peptide)
chain: PSQRCYVFFFS
B16: PTAR1_Y42_R41S (peptide)
chain: CPEASYNRSPI
B17: PSME1_Y249 (peptide)
chain: TKGMIYGGGGG
B18: PSMD9_Y70 (peptide)
chain: SDVDLYQVRTA

Results on 18 molecules are retold here after the supplement of paper PMC10369915.

Some of the results follow. No stated cut-off is given here; in the data, active = 3.2 or more and inactive = the rest. Only a few entries rise above the background.
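Further: displayed peptides selected on beads carrying the immobilized SH2 domain, with library peptides lacking any tyrosine serving as negative controls.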

The target of one assay is SHP2 C-SH2 domain E139D. Put plainly: enrichment score (SH2-bound / input frequency) (ratio); bacterial display of known human phosphotyrosine sites (pTyr-Var adds point mutants) read by sequencing; higher = stronger binding; tyrosines were phosphorylated by kinases first. Conditions: peptide library: pTyr-Var.
On to B1, for which the enrichment score is inactive: 0.433.
On the same count and under the same terms, in the case of B2 it was inactive: 0.631.
Still for that read-out and setting: in the case of B3 it was inactive: 0.311.
Still for that read-out and setting: in the case of B4 it was inactive: 1.97.
On to B5, for which the enrichment score is inactive: 1.5.
Consider B6, for which the enrichment score was inactive: 2.05.
Same read-out and setting: in the case of B7 it was inactive: 1.09; in that of B8, inactive: 0.755.
The same measure, in the same setting: in the case of B9 it was inactive: 0.955; in that of B10, inactive: 1.87.
Turning to B11, the enrichment score was inactive: 0.883.
Same read-out and setting: in the case of B12 it was inactive: 0.555.
B13: the enrichment score was inactive: 0.971.
The same measure, in the same setting: in the case of B14 it was inactive: 0.703; in that of B15, inactive: 2.38; in that of B16, inactive: 0.895.
On the same count and under the same terms, in the case of B17 it was inactive: 0.627; in that of B18, inactive: 0.716.

The next assay deals with SHP2 C-SH2 domain wild-type. The description is as above. Conditions: peptide library: pTyr-Var.
With B1, the enrichment score is inactive: 0.558.
The same measure, in the same setting: in the case of B2 it was inactive: 0.671.
Still for that read-out and setting: in the case of B3 it was inactive: 0.235.
Same read-out and setting: in the case of B4 it was inactive: 2.59.
Take B5: the enrichment score was inactive: 1.3.
Same read-out and setting: in the case of B6 it was inactive: 2.41.
Still for that read-out and setting: in the case of B7 it was inactive: 1.45.
Regarding B8, the enrichment score was inactive: 0.356.
Still for that read-out and setting: in the case of B9 it was inactive: 1.55; in that of B10, inactive: 1.34.
Same read-out and setting: in the case of B11 it was inactive: 0.699.
On the same count and under the same terms, in the case of B12 it was inactive: 0.403; in that of B13, inactive: 1.02.
Regarding B14, the enrichment score is inactive: 0.902.
The same measure, in the same setting: in the case of B15 it was inactive: 2.21; in that of B16, inactive: 0.821; in that of B17, inactive: 0.534.
Turning to B18, the enrichment score is inactive: 0.69.

For another assay, the target named is SHP2 N-SH2 domain L43F. The description is as above. To be noted: peptide library: pTyr-Var.
Regarding B1, the enrichment score is inactive: 0.36.
On the same count and under the same terms, in the case of B2 it was inactive: 0.66; in that of B3, inactive: 0.313.
On the same count and under the same terms, in the case of B4 it was inactive: 1.88; in that of B5, inactive: 1.51.
On the same count and under the same terms, in the case of B6 it was inactive: 1.58; in that of B7, inactive: 0.783.
B8: the enrichment score is inactive: 0.413.
On the same count and under the same terms, in the case of B9 it was inactive: 1.54; in that of B10, inactive: 1.29.
On the same count and under the same terms, in the case of B11 it was inactive: 0.674; in that of B12, inactive: 0.416; in that of B13, inactive: 0.782.
Still for that read-out and setting: in the case of B14 it was inactive: 0.936.
Turning to B15, the enrichment score was inactive: 2.13.
Same read-out and setting: in the case of B16 it was inactive: 0.711; in that of B17, inactive: 0.447; in that of B18, inactive: 0.66.

In another assay the target is SHP2 N-SH2 domain T42A. Described as above. To be noted: peptide library: pTyr-Var.
As for B1, the enrichment score was inactive: 0.369.
With B2, the enrichment score was inactive: 0.521.
Consider B3, for which the enrichment score is inactive: 0.262.
The same measure, in the same setting: in the case of B4 it was inactive: 1.87; in that of B5, inactive: 1.34; in that of B6, inactive: 1.58.
Same read-out and setting: in the case of B7 it was inactive: 1.03; in that of B8, inactive: 0.428; in that of B9, inactive: 1.07.
Regarding B10, the enrichment score was inactive: 1.46.
Still for that read-out and setting: in the case of B11 it was inactive: 0.603.
On the same count and under the same terms, in the case of B12 it was inactive: 0.671; in that of B13, inactive: 0.732; in that of B14, inactive: 0.836.
For B15, the enrichment score was inactive: 1.96.
On the same count and under the same terms, in the case of B16 it was inactive: 0.601; in that of B17, inactive: 0.38; in that of B18, inactive: 0.639.

The next assay concerns the target SHP2 N-SH2 domain T52S. The description is as above. To be noted: peptide library: pTyr-Var.
For the molecule B1, the enrichment score is inactive: 0.57.
The same measure, in the same setting: in the case of B2 it was inactive: 0.394.
Take B3: the enrichment score was inactive: 0.558.
Same read-out and setting: in the case of B4 it was inactive: 1.81.
Same read-out and setting: in the case of B5 it was inactive: 1.6; in that of B6, inactive: 1.52; in that of B7, inactive: 1.69.
As for B8, the enrichment score was inactive: 0.427.
Still for that read-out and setting: in the case of B9 it was inactive: 1.24.
Still for that read-out and setting: in the case of B10 it was inactive: 1.66; in that of B11, inactive: 0.734; in that of B12, inactive: 0.673.
On the same count and under the same terms, in the case of B13 it was inactive: 0.774; in that of B14, inactive: 0.974; in that of B15, inactive: 1.95.
With B16, the enrichment score is inactive: 0.546.
As to B17, the enrichment score is inactive: 0.507.
B18: the enrichment score is inactive: 0.667.

Another assay concerns the target SHP2 N-SH2 domain wild-type. The description is as above. Conditions: peptide library: pTyr-Var.
For B1, the enrichment score was inactive: 0.567.
Still for that read-out and setting: in the case of B2 it was inactive: 0.821; in that of B3, inactive: 0.331; in that of B4, inactive: 1.54.
Still for that read-out and setting: in the case of B5 it was inactive: 1.19; in that of B6, inactive: 1.89; in that of B7, inactive: 0.726.
On to B8, for which the enrichment score was inactive: 0.463.
Same read-out and setting: in the case of B9 it was inactive: 1.94; in that of B10, inactive: 1.44; in that of B11, inactive: 0.958.
On the same count and under the same terms, in the case of B12 it was inactive: 0.462; in that of B13, inactive: 0.857.
The same measure, in the same setting: in the case of B14 it was inactive: 0.745.
Regarding B15, the enrichment score was inactive: 2.08.
On the same count and under the same terms, in the case of B16 it was inactive: 1.1.
The same measure, in the same setting: in the case of B17 it was inactive: 0.451.
With B18, the enrichment score was inactive: 0.608.
